According to ChEMBL document CHEMBL4888484, “Replenishing the malaria drug discovery pipeline: Screening and hit evaluation of the MMV Hit Generation Library 1 (HGL1) against asexual blood stage Plasmodium falciparum ,using a nano luciferase reporter read-out” (2022):
Out of some 150,000 compounds screened, about 540 (0.36%) showed an effect of 50% or more. This is one part of the list.

Test system: Plasmodium falciparum
Experiment: Primary screen in NF54 nanoGlo assay, in single point, at 2uM, 72h; a lower Z score goes with more inhibition
Assay type: functional, Erythrocyte
Settings: timepoint 72 hour

Row | SMILES | % Inhibition [%] | Z score
1 | Cc1cccc2nc(C(=O)N[C@H]3CC[C@@H]4CCC[C@@H]43)c(F)n12 | 8 | -0.88
2 | O=C(N[C@@H]1CCN(C(=O)Cc2cccc(Cl)c2)C[C@@H]1CO)c1cccnc1 | 2 | -0.2
3 | CC(=O)Nc1nc(Cn2cc(CN3CCOC[C@H]3C)nn2)cs1 | -4 | 0.7
4 | C[C@@](CO)(CCF)NC(=O)c1ccccn1 | 4 | -0.45
5 | CC#CCN(Cc1ccco1)C(=O)C1(N2CCN(CC)CC2)Cc2ccccc2C1 | -13 | 1.87
6 | CCc1n[nH]cc1C(=O)N[C@@H](CCO)c1ccc(C)cc1 | -2 | 0.33
7 | CC(C)C(=O)Nc1c(-c2ccccn2)nsc1C(=O)NCCc1ccccc1 | -1 | 0.2
8 | CCOC(=O)c1c(CN2CCCC2)n(C)c2cc(-c3cccnc3)c(O)c(Cn3ccnc3)c12 | 58 | -10.36
9 | O=C(c1csc(-c2cccs2)n1)N1CCn2nc(CO)cc2C1 | -13 | 2.26
10 | CC(C)[C@H](Cn1ccnn1)NC(=O)COc1ccccc1 | 11 | -1.42
11 | Cn1c(C(=O)N2CCC(NC(=O)NC3CCCCC3)CC2)c(Cl)c2ccccc21 | -2 | 0.33
12 | CCc1noc(C)c1CNc1cnn(CC(F)F)c1 | -5 | 0.67
13 | COc1ccccc1OCCn1cnnc1[C@H](O)c1ccccc1 | -3 | 0.45
14 | CN1CC2CCN(C(=O)C3(O)CCc4cc(Br)ccc4C3)C2C1 (centres undefined) | 9 | -1.61
15 | COC(=O)C1CC(Oc2ccccc2F)CN1S(=O)(=O)c1cc(Cl)ccc1OC (centres undefined) | -7 | 1.41
16 | CC(NC(=O)CC1CC2CCC1C2)c1ccccn1 (centres undefined) | -4 | 0.62
17 | CC(=O)N1CCC[C@H]1C(=O)Nc1ccc(-c2cccc(F)c2F)cn1 | 0 | 0
18 | CC(C)CN1C(=O)CC[C@@H](C(=O)N2CCCCC2)[C@@H]1c1cccnc1 | 31 | -3.53
19 | Cn1nc(C(F)(F)F)c2cc(C(=O)N3CCCC34CCC4)cnc21 | 0 | 0.06
20 | NC(=O)N[C@H]1CCCC[C@H]1CC(F)(F)F | -3 | 0.41
21 | Cc1c(Cl)cccc1-n1nc(CC(N)=O)nc1[C@@H](O)Cc1ccccc1 | -18 | 1.62

Row | SMILES | % Inhibition [%] | Z score
22 | CCC#CCN1CCC(CNC(=O)c2ccsc2)CC1 | -5 | 0.86
23 | CCCc1nn(-c2ccc(Cl)c(Cl)c2)c(CC)c1C(=O)NC1CC1 | -8 | 1.1
24 | C[C@@H](C(=O)N(C)CCn1ccc2ccccc21)N1CCCC1=O | -7 | 1.03
25 | Cc1ccc(-c2nc(C3(S(C)(=O)=O)CCCC3)no2)cc1 | -7 | 1.46
26 | N#C[C@@H](NC(=O)CCC(=O)c1ccc(F)cc1F)C1CCCCC1 | -12 | 1.31
27 | COC1CCCCCC1NC(=O)NC1CC=CC1 (centres undefined) | -14 | 1.41
28 | CC[C@@H](c1nc2c3c(C)c(C)n(-c4ccc(F)cc4)c3ncn2n1)N1C(=O)c2ccccc2C1=O | -24 | 3.03
29 | O=C(NC1CCC2(CC1)CC2)C1CCS(=O)(=O)CC1 | 13 | -1.46
30 | Cn1ncc(C2CC2)c1C(=O)N1CCCN(c2ccc(Cl)c(Cl)c2)CC1 | 4 | -0.64
31 | CCOc1cc(CN2C[C@H]3CC[C@@H](C2)[C@H]3O)cc(Cl)c1OCC | 5 | -0.89
32 | CCOc1nc2cc(NC(=O)C[C@@H]3COC(=O)C3)ccc2o1 | -31 | 3.59
33 | Cc1noc(C)c1CN1CC[C@H](NC(=O)Cc2ccsc2)C1 | 1 | -0.2
34 | Cc1c(Cl)cccc1C(=O)NCCC(=O)Nc1cccnc1 | 5 | -0.89
35 | C[C@@H](C(=O)NC1(C#N)CCCCC1)N1CCn2ccnc2C1 | -12 | 1.9
36 | Cn1nc(C2CC2)c2c1NC(=O)C[C@H]2c1ccc(-c2ccccc2C#N)o1 | -17 | 1.61
37 | Cc1cc(C(=O)N2CCC[C@H](Oc3cccnn3)C2)c(C)o1 | -4 | 0.45
38 | CO[C@@H](C)c1nc(CN(C)Cc2cn(C)nn2)cs1 | -12 | 1.43
39 | Cc1cc(S(=O)(=O)N2CCN(Cc3ccccn3)CC2)sc1C | 10 | -1.56
40 | CC(C)(C)n1c(=O)c2ccc(F)cc2n1CC(=O)Nc1cccc(Cl)c1 | -8 | 1.23
41 | CC1CN(c2nccnc2C#N)CCN1C(=O)NC1CCCC1C(C)(C)C (centres undefined) | -2 | 0.37
42 | COc1ccc(C(=O)N2CCC3(CC2)C[C@@H](Cc2ccccc2)CCO3)cc1F | 1 | -0.16
